# Measured values from patent publication US20230135471A1 (INTEGRATED DNA TECHNOLOGIES, published 2023).
# B1: A44T (CM89) (designed binder)
# Ubv: MHHHHHHGGSGMLIFVRMLTGKMIELEVEPSDTIENVKAKIQDHEGIPPDQQRLTFQGKSLEDGRTLSDYNILKDPKKMPLLRLR
# B2: D32A (CM78) (designed binder)
# Ubv: MHHHHHHGGSGMLIFVRMLTGKMIELEVEPSDTIENVKAKIQAHEGIPPDQQRLAFQGKSLEDGRTLSDYNILKDPKKMPLLRLR
# B3: E16M (CM66) (designed binder)
# Ubv: MHHHHHHGGSGMLIFVRMLTGKMIELMVEPSDTIENVKAKIQDHEGIPPDQQRLAFQGKSLEDGRTLSDYNILKDPKKMPLLRLR
# B4: E16T (CM67) (designed binder)
# Ubv: MHHHHHHGGSGMLIFVRMLTGKMIELTVEPSDTIENVKAKIQDHEGIPPDQQRLAFQGKSLEDGRTLSDYNILKDPKKMPLLRLR
# B5: E18F (CM71) (designed binder)
# Ubv: MHHHHHHGGSGMLIFVRMLTGKMIELEVFPSDTIENVKAKIQDHEGIPPDQQRLAFQGKSLEDGRTLSDYNILKDPKKMPLLRLR
# B6: E18L (CM70) (designed binder)
# Ubv: MHHHHHHGGSGMLIFVRMLTGKMIELEVLPSDTIENVKAKIQDHEGIPPDQQRLAFQGKSLEDGRTLSDYNILKDPKKMPLLRLR
# B7: E18M (CM68) (designed binder)
# Ubv: MHHHHHHGGSGMLIFVRMLTGKMIELEVMPSDTIENVKAKIQDHEGIPPDQQRLAFQGKSLEDGRTLSDYNILKDPKKMPLLRLR
# B8: E18Y (CM69) (designed binder)
# Ubv: MHHHHHHGGSGMLIFVRMLTGKMIELEVYPSDTIENVKAKIQDHEGIPPDQQRLAFQGKSLEDGRTLSDYNILKDPKKMPLLRLR
# B9: E51D (CM94) (designed binder)
# Ubv: MHHHHHHGGSGMLIFVRMLTGKMIELEVEPSDTIENVKAKIQDHEGIPPDQQRLAFQGKSLDDGRTLSDYNILKDPKKMPLLRLR
# B10: I61L (CM101) (designed binder)
# Ubv: MHHHHHHGGSGMLIFVRMLTGKMIELEVEPSDTIENVKAKIQDHEGIPPDQQRLAFQGKSLEDGRTLSDYNLLKDPKKMPLLRLR
# B11: K33A (CM81) (designed binder)
# Ubv: MHHHHHHGGSGMLIFVRMLTGKMIELEVEPSDTIENVKAKIQDAEGIPPDQQRLAFQGKSLEDGRTLSDYNILKDPKKMPLLRLR
# B12: K33Q (CM80) (designed binder)
# Ubv: MHHHHHHGGSGMLIFVRMLTGKMIELEVEPSDTIENVKAKIQDQEGIPPDQQRLAFQGKSLEDGRTLSDYNILKDPKKMPLLRLR
# B13: K33S (CM79) (designed binder)
# Ubv: MHHHHHHGGSGMLIFVRMLTGKMIELEVEPSDTIENVKAKIQDSEGIPPDQQRLAFQGKSLEDGRTLSDYNILKDPKKMPLLRLR
# B14: K48T (CM90) (designed binder)
# Ubv: MHHHHHHGGSGMLIFVRMLTGKMIELEVEPSDTIENVKAKIQDHEGIPPDQQRLAFQGTSLEDGRTLSDYNILKDPKKMPLLRLR
# B15: K63I (CM102) (designed binder)
# Ubv: MHHHHHHGGSGMLIFVRMLTGKMIELEVEPSDTIENVKAKIQDHEGIPPDQQRLAFQGKSLEDGRTLSDYNILIDPKKMPLLRLR
# B16: L73M (CM104) (designed binder)
# Ubv: MHHHHHHGGSGMLIFVRMLTGKMIELEVEPSDTIENVKAKIQDHEGIPPDQQRLAFQGKSLEDGRTLSDYNILKDPKKMPLLRMR
# B17: M1H (CM62) (designed binder)
# Ubv: MHHHHHHGGSGHLIFVRMLTGKMIELEVEPSDTIENVKAKIQDHEGIPPDQQRLAFQGKSLEDGRTLSDYNILKDPKKMPLLRLR
# B18: M1Y (CM63) (designed binder)
# Ubv: MHHHHHHGGSGYLIFVRMLTGKMIELEVEPSDTIENVKAKIQDHEGIPPDQQRLAFQGKSLEDGRTLSDYNILKDPKKMPLLRLR
# B19: N25E (CM73) (designed binder)
# Ubv: MHHHHHHGGSGMLIFVRMLTGKMIELEVEPSDTIEEVKAKIQDHEGIPPDQQRLAFQGKSLEDGRTLSDYNILKDPKKMPLLRLR
# B20: N25V (CM72) (designed binder)
# Ubv: MHHHHHHGGSGMLIFVRMLTGKMIELEVEPSDTIEVVKAKIQDHEGIPPDQQRLAFQGKSLEDGRTLSDYNILKDPKKMPLLRLR
# B21: P38C (CM83) (designed binder)
# Ubv: MHHHHHHGGSGMLIFVRMLTGKMIELEVEPSDTIENVKAKIQDHEGIPCDQQRLAFQGKSLEDGRTLSDYNILKDPKKMPLLRLR
# B22: P38L (CM82) (designed binder)
# Ubv: MHHHHHHGGSGMLIFVRMLTGKMIELEVEPSDTIENVKAKIQDHEGIPLDQQRLAFQGKSLEDGRTLSDYNILKDPKKMPLLRLR
# B23: Q31C (CM75) (designed binder)
# Ubv: MHHHHHHGGSGMLIFVRMLTGKMIELEVEPSDTIENVKAKICDHEGIPPDQQRLAFQGKSLEDGRTLSDYNILKDPKKMPLLRLR
# B24: Q31F (CM77) (designed binder)
# Ubv: MHHHHHHGGSGMLIFVRMLTGKMIELEVEPSDTIENVKAKIFDHEGIPPDQQRLAFQGKSLEDGRTLSDYNILKDPKKMPLLRLR
# B25: Q31W (CM76) (designed binder)
# Ubv: MHHHHHHGGSGMLIFVRMLTGKMIELEVEPSDTIENVKAKIWDHEGIPPDQQRLAFQGKSLEDGRTLSDYNILKDPKKMPLLRLR
# B26: Q40E (CM84) (designed binder)
# Ubv: MHHHHHHGGSGMLIFVRMLTGKMIELEVEPSDTIENVKAKIQDHEGIPPDEQRLAFQGKSLEDGRTLSDYNILKDPKKMPLLRLR
# B27: R42F (CM88) (designed binder)
# Ubv: MHHHHHHGGSGMLIFVRMLTGKMIELEVEPSDTIENVKAKIQDHEGIPPDQQFLAFQGKSLEDGRTLSDYNILKDPKKMPLLRLR
# B28: R42H (CM87) (designed binder)
# Ubv: MHHHHHHGGSGMLIFVRMLTGKMIELEVEPSDTIENVKAKIQDHEGIPPDQQHLAFQGKSLEDGRTLSDYNILKDPKKMPLLRLR
# B29: R54Y (CM95) (designed binder)
# Ubv: MHHHHHHGGSGMLIFVRMLTGKMIELEVEPSDTIENVKAKIQDHEGIPPDQQRLAFQGKSLEDGYTLSDYNILKDPKKMPLLRLR
# B30: R74Q (CM105) (designed binder)
# Ubv: MHHHHHHGGSGMLIFVRMLTGKMIELEVEPSDTIENVKAKIQDHEGIPPDQQRLAFQGKSLEDGRTLSDYNILKDPKKMPLLRLQ
# B31: S49L (CM92) (designed binder)
# Ubv: MHHHHHHGGSGMLIFVRMLTGKMIELEVEPSDTIENVKAKIQDHEGIPPDQQRLAFQGKLLEDGRTLSDYNILKDPKKMPLLRLR
# B32: S49M (CM93) (designed binder)
# Ubv: MHHHHHHGGSGMLIFVRMLTGKMIELEVEPSDTIENVKAKIQDHEGIPPDQQRLAFQGKMLEDGRTLSDYNILKDPKKMPLLRLR
# B33: S57G (CM98) (designed binder)
# Ubv: MHHHHHHGGSGMLIFVRMLTGKMIELEVEPSDTIENVKAKIQDHEGIPPDQQRLAFQGKSLEDGRTLGDYNILKDPKKMPLLRLR
# B34: S65H (CM103) (designed binder)
# Ubv: MHHHHHHGGSGMLIFVRMLTGKMIELEVEPSDTIENVKAKIQDHEGIPPDQQRLAFQGKSLEDGRTLSDYNILKDHKKMPLLRLR
# B35: T14D (CM65) (designed binder)
# Ubv: MHHHHHHGGSGMLIFVRMLTGKMIDLEVEPSDTIENVKAKIQDHEGIPPDQQRLAFQGKSLEDGRTLSDYNILKDPKKMPLLRLR
# B36: T14H (CM64) (designed binder)
# Ubv: MHHHHHHGGSGMLIFVRMLTGKMIHLEVEPSDTIENVKAKIQDHEGIPPDQQRLAFQGKSLEDGRTLSDYNILKDPKKMPLLRLR
# B37: V26I (CM74) (designed binder)
# Ubv: MHHHHHHGGSGMLIFVRMLTGKMIELEVEPSDTIENIKAKIQDHEGIPPDQQRLAFQGKSLEDGRTLSDYNILKDPKKMPLLRLR
# B38: CM142, His-tagged (designed binder)
# chain: MHHHHHHGGSGYLIFVRMLTGKMIELEVEPSDTIENIKAKIQDHEGIPLDQQRLTFQGKLLEDGRTLSDYNLLIDPKKMPLLRMQ
# B39: CM113, His-tagged (designed binder)
# chain: MHHHHHHGGSGMLIFVRMLTGKMIELEVEPSDTIENVKAKIQDHEGIPPDQQRLAFQGKSLEDGRTLSDYNLLIDPKKMPLLRLR
# B40: CM131, His-tagged (designed binder)
# chain: MHHHHHHGGSGYLIFVRMLTGKMIELEVEPSDTIENIKAKIQDHEGIPPDQQRLAFQGKSLEDGRTLSDYNLLIDPKKMPLLRMR
# Biological target: MBP tagged 53BP1 fragment (a.a. 1484-1603)
# Test: BLI, fold change Ka of Ubv/Ka of CM1
row,Binder,binding result
1,B1,binds
2,B2,binds
3,B3,binds
4,B4,binds
5,B5,binds
6,B6,binds
7,B7,binds
8,B8,binds
9,B9,binds
10,B10,binds
11,B11,binds
12,B12,binds
13,B13,binds
14,B14,binds
15,B15,binds
16,B16,binds
17,B17,binds
18,B18,binds
19,B19,binds

row,Binder,binding result
1,B20,binds
2,B21,binds
3,B22,binds
4,B23,binds
5,B24,binds
6,B25,binds
7,B26,binds
8,B27,binds
9,B28,binds
10,B29,binds
11,B30,binds
12,B31,binds
13,B32,binds
14,B33,binds
15,B34,binds
16,B35,binds
17,B36,binds
18,B37,binds

# Biological target: MBP tagged 53BP1 fragment (a.a. 1484-1603)
# Test: BLI, fold change Ka of Ubv/Ka of CM1
# Remark: another data set of the same source
row,Binder,binding result
1,B38,binds
2,B39,binds
3,B40,binds
